In publication doi:10.1101/2023.08.01.549180:

How the values were obtained:
2dV-Camuiα (rat) = 2dV-Camuiα (rat) (UniProt P11275); assay: SEC
Green-Camuiα (rat) = Green-Camuiα (rat) (UniProt P11275); assay: SEC

stoichiometry N (2dV-Camuiα (rat)) | stoichiometry N (Green-Camuiα (rat)) | Substance
12 | – | 2dV-Camuiα (a stretch of the chain, chain not printed) (natural protein; other documents disagree on this pair)
– | 12 | Green-Camuiα (a stretch of the chain, chain not printed) (natural protein; other documents disagree on this pair)
